# Assay results reported in the supplement of paper PMC12217912.
# The list shows a part of the results. Sequences were assembled here from the parent chain. Inactive controls read about 0.05.
# B1: TEV protease; numbered along this chain (parent)
# chain: MGESLFKGPRDYNPISSSICHLTNESDGHTTSLYGIGFGPFIITNKHLFRRNNGTLVVQSLHGVFKVKDTTTLQQHLVDGRDMIIIRMPKDFPPFPQKLKFREPQREERICLVTTNFQTKSMSSMVSDTSCTFPSGDGIFWKHWIQTKDGQCGSPLVSTRDGFIVGIHSASNFTNTNNYFTSVPKNFMELLTNQEAQQWVSGWRLNADSVLWGGHKVFMVKPEEPFQPVKEATQL
# Variants of: B1
# Test: raw area under fraction-flipped curve 0-4 h after induction (AUC4h, not background-subtracted), DNA-recorder readout of cleavage of the substrate (dimensionless); higher = more cleavage of the substrate by the protease variant
# Conditions: temperature: 34 °C; time window: 0-4 h after rhamnose induction
# Procedure: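 In vivo DNA recorder in E. coli TOP10(DE3) ΔrhaA at 34 °C. Each TEVp single-site mutant (parent TEVp 0) is paired with a single-site variant of the 7-mer TEVs (canonical ENLYFQ|S). The substrate sits between flexible linkers in a Bxb1-sfGFP-TEVs-SsrA fusion, so cleavage stabilises Bxb1 and speeds flipping of a recombination array, read by NGS. The value is the raw area under the fraction-flipped curve over 0-4 h after rhamnose induction (AUC4h), with ≥20 reads per time point. It is not background-subtracted; inactive controls average about 0.047.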
# 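Further: Bxb1 expression induced with 0.2% (w/v) L-rhamnose at OD600 near 0.5, cultures sampled hourly, flipped fraction per protease–substrate barcode pair counted by paired-end Illumina sequencing.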
Variant,area with substrate ENLYFCS,area with substrate ENLYFDS,area with substrate ENLYFES,area with substrate ENLYFFS,area with substrate ENLYFGS,area with substrate ENLYFHS,area with substrate ENLYFIS,area with substrate ENLYFKS,area with substrate ENLYFLS,area with substrate ENLYFNS,area with substrate ENLYFPS,area with substrate ENLYFRS,area with substrate ENLYFSS,area with substrate ENLYFTS,area with substrate ENLYFVS,area with substrate ENLYFWS,area with substrate ENLYFYS,area with substrate ENLYFMS
MGESLFKGPRDYNPISSSICHLTNESDGHTTSLYGIGFGPFIITNKHLFRRNNGTLVVQSLHGVFKVKDTTTLQQHLVDGRDMIIIRMPKDFPPFPQKLKFREPQREERICLVTTNFQTKSMSSNVSDTSCTFPSGDGIFWKHWIQTKDGQCGSPLVSTRDGFIVGIHSASNFTNTNNYFTSVPKNFMELLTNQEAQQWVSGWRLNADSVLWGGHKVFMVKPEEPFQPVKEATQL [M125N],0.0726,0.0636,0.0756,0.0719,0.0598,0.0604,0.0555,0.0531,0.0616,0.0644,0.0667,0.0615,0.0579,0.0599,0.063,0.0679,0.0715,–
MGESLFKGPRDYNPISSSICHLTNESDGHTTSLYGIGFGPFIITNKHLFRRNNGTLVVQSLHGVFKVKDTTTLQQHLVDGRDMIPIRMPKDFPPFPQKLKFREPQREERICLVTTNFQTKSMSSMVSDTSCTFPSGDGIFWKHWIQTKDGQCGSPLVSTRDGFIVGIHSASNFTNTNNYFTSVPKNFMELLTNQEAQQWVSGWRLNADSVLWGGHKVFMVKPEEPFQPVKEATQL [I85P],0.0368,0.0388,0.0256,0.0428,0.0412,0.0408,0.038,0.0425,0.0394,0.0401,0.0281,–,–,–,0.0175,0.0406,0.0473,–
MGESLFKGPRDYNPISSSICHLTNESDGHTTSLYGIGFGPFIITNKHLFRRNNGTLVVQSLHGVFKVKDTTTLQQHLVDGRDMIIIRMPKDFPPFPQKLKFREPQREERICLVFTNFQTKSMSSMVSDTSCTFPSGDGIFWKHWIQTKDGQCGSPLVSTRDGFIVGIHSASNFTNTNNYFTSVPKNFMELLTNQEAQQWVSGWRLNADSVLWGGHKVFMVKPEEPFQPVKEATQL [T114F],0.0533,–,–,0.0862,0.0882,–,0.0613,0.0555,0.0576,0.059,0.0601,0.0071,0.0949,–,0.0291,–,0.0762,0.0711
MGESLFKGPRDYNPISSSICHLTNESDGHTTSLYGIGFGPFIITNKHLFRRNNGTLVVQSLHGVFKVKDTTTLQQHLVDGRDMWIIRMPKDFPPFPQKLKFREPQREERICLVTTNFQTKSMSSMVSDTSCTFPSGDGIFWKHWIQTKDGQCGSPLVSTRDGFIVGIHSASNFTNTNNYFTSVPKNFMELLTNQEAQQWVSGWRLNADSVLWGGHKVFMVKPEEPFQPVKEATQL [I84W],0.0578,–,0.0585,0.0575,0.0558,0.0558,0.0571,0.0401,0.0602,0.0631,0.0555,–,0.0563,0.058,0.059,0.0409,0.0433,0.0411
MGESLFKGPRDYNPISSSICHLTNESDGHTTSLYGIGFGPFIITNKHLFRRNNGTLVVQSLHGVFKVKDTTTLQQHLVDGRDMIIIRMPKDFPPFPQKLKFREPQREERICLVTTNFQTKSMSSMFSDTSCTFPSGDGIFWKHWIQTKDGQCGSPLVSTRDGFIVGIHSASNFTNTNNYFTSVPKNFMELLTNQEAQQWVSGWRLNADSVLWGGHKVFMVKPEEPFQPVKEATQL [V126F],0.0588,–,0.0402,0.084,0.0553,0.0257,0.0599,0.0712,–,0.0568,0.0533,0.059,–,–,0.0683,0.0485,0.0344,0.0938
MGESLFKGPRDYNPISSSICHLTNESDGHTTSLYGIGFGPFIITNKHLFRRNNGTLVVQSLHGVFKVKDTTTLQQHLVDGRDMIIIRMPKDFPPFPQKLKFREPQREERICLVTTNFQTKSMSSMNSDTSCTFPSGDGIFWKHWIQTKDGQCGSPLVSTRDGFIVGIHSASNFTNTNNYFTSVPKNFMELLTNQEAQQWVSGWRLNADSVLWGGHKVFMVKPEEPFQPVKEATQL [V126N],0.0736,–,0.0592,0.0671,0.0733,0.0632,0.0664,0.0593,0.061,0.0866,0.054,0.0474,0.0896,0.0483,0.0554,0.0468,0.0536,0.0699
MGESLFKGPRDYNPISSSICHLTNESDGHTTSLYGIGFGPFIITNKHLFRRNNGTLVVQSLHGVFKVKDTTTLQQHLVDGRDMIIIRMPKDFPPFPQKLKFREPQREERICLVTTNFQTKSMSSMMSDTSCTFPSGDGIFWKHWIQTKDGQCGSPLVSTRDGFIVGIHSASNFTNTNNYFTSVPKNFMELLTNQEAQQWVSGWRLNADSVLWGGHKVFMVKPEEPFQPVKEATQL [V126M],0.0681,0.0507,0.0613,0.0645,–,0.0366,0.0544,0.0652,0.0592,0.0628,0.0742,0.0608,0.0578,0.0594,–,0.057,0.0742,0.0741
MGESLFKGPRDYNPISSSICHLTNESDGHTTSLYGIGFGPFIITNKHLFRRNNGTLVVQSLHGVFKVKDTTTLQQHLVDGRDMIIIRMPKPFPPFPQKLKFREPQREERICLVTTNFQTKSMSSMVSDTSCTFPSGDGIFWKHWIQTKDGQCGSPLVSTRDGFIVGIHSASNFTNTNNYFTSVPKNFMELLTNQEAQQWVSGWRLNADSVLWGGHKVFMVKPEEPFQPVKEATQL [D91P],0.0623,–,0.0254,0.0744,–,–,0.0583,0.0641,0.0498,–,0.054,0.0437,0.0487,–,–,0.0732,0.0558,0.0623
MGESLFKGPRDYNPISSSICHLTNESDGHTTSLYGIGFGPFIITNKHLFRRNNGTLVVQSLHGVFKVKDTTTLQQHLVDGRDMIIIRMPKDFPPFPQKLKFREPQREERICLVTTNHQTKSMSSMVSDTSCTFPSGDGIFWKHWIQTKDGQCGSPLVSTRDGFIVGIHSASNFTNTNNYFTSVPKNFMELLTNQEAQQWVSGWRLNADSVLWGGHKVFMVKPEEPFQPVKEATQL [F117H],0.0593,0.05,0.0624,0.0634,–,0.0657,0.0542,0.0682,0.0558,–,0.0573,0.0599,0.0597,0.0665,0.0653,0.0548,0.0583,0.0822
